Results on 35 compounds are retold here after PubChem BioAssay AID588579 (National Center for Advancing Translational Sciences (NCATS), 2011).

Each structure is given as a SMILES string. In all, about 400,000 compounds went through this assay and about 2,200 (0.55%) were called active. Not shown: some 1% with an inconclusive outcome. Calls come from the whole dose curve; as a rule, active = well fitted inhibition curve with a large enough effect; inconclusive = small, poorly fitted or top-dose-only effect, or another doubt; inactive = no such curve, though single readings can be large or run the other way. Only a part is listed here, and it is no random draw. Some structures have more than one record in an assay (separate samples or runs), and their calls can disagree. Non-standard residues stand in square brackets, D forms with d. Residues, ends and D or L forms follow the SMILES beside them. pGlu = O=C1CC[C@@H](C(=O)O)N1
% is set by controls: 0 for no effect and ±100 for the full control effect; potency is the fitted concentration of half-maximal effect.

Sequence of UniProt Q9UBT6 (Q9UBT6 whole entry, looked up): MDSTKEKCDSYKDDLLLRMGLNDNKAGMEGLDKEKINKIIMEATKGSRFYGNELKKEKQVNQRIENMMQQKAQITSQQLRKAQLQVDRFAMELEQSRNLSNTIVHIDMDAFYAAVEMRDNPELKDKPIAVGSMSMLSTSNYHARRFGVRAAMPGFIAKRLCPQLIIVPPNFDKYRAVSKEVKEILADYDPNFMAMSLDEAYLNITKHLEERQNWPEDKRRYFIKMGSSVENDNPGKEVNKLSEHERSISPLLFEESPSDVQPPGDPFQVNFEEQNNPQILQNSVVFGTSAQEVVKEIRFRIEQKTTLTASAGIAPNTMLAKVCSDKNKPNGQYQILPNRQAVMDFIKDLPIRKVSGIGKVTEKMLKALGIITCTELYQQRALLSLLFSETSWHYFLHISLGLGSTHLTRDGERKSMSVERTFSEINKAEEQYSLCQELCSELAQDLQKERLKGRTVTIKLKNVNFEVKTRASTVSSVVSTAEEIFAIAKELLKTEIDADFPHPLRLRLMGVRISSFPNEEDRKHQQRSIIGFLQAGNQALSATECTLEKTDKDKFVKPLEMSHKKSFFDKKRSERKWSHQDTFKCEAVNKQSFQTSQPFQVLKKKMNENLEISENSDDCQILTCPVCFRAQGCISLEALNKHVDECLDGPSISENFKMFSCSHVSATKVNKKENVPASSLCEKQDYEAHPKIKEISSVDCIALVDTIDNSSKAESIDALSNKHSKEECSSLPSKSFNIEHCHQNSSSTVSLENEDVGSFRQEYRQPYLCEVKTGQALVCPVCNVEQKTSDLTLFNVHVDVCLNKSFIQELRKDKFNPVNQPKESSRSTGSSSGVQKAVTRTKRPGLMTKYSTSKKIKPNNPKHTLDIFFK

In this test the target is DNA polymerase kappa (Homo sapiens) (UniProt Q9UBT6). In words: qHTS for Inhibitors of Polymerase Kappa. The settings on record: purified Pol kappa, fluorescent DNA synthesis assay, 10 min; series mostly up to 107 µM; activity, negative = inhibition: at the top concentration. An outline of the steps:
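Inhibition of 10 nM Pol kappa is measured by a fluorescent read-out at 0 and 10 min following addition of 50 nM substrate (final), with a 15-min room-temperature compound preincubation.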
(In qHTS, concentration-response curves come from the screen itself.)
On to `Cc1ccc(C)c(NC(=O)CN(C)C(=O)c2cccc(-n3cccc3)c2)c1`, for which the Potency is active: 39.8 µM.

For `COc1cc(/C=C2\SC(=Nc3ccc(Cl)c(C(=O)O)c3)NC2=O)c(Br)c(Br)c1O`, the Potency was active: 39.8 µM. Consider `O=C(O)c1cc(-c2ccco2)nc2ccc(Br)cc12`, for which the “activity, negative = inhibition” value was inactive: -5.03%. Turning to `C=C1CCC2[C@](C)(CO)[C@H](O)CC[C@@]2(C)[C@@H]1/C=C/C1=CCOC1=O` (stereo not given in full), the “activity, negative = inhibition” value was inactive: 0.0271%.

With `COc1ccc(NC=O)c(C(=O)CCNC(C)=O)c1`, the “activity, negative = inhibition” value was inactive: 16.9% [at 60.1 µM].

Take `CCOC(=O)C(C(C)=O)c1c(Br)c(O)c(O)c2c(C(=O)c3ccc(C)cc3)coc12` (stereo not given): the Potency was active: 50.1 µM. Same read-out and setting: the same measure for `Nc1ncc(N=Nc2cc(C(=O)O)ccc2Cl)s1`: active: 79.4 µM; for `Cc1cccc2cc(C(c3nnnn3C(C)(C)C)N(Cc3ccco3)CC3CCCO3)c(=O)[nH]c12` (stereo not given): active: 44.7 µM. As to `CC(=O)C[C@H](O)CC(=O)[C@@H]1OC(=O)CCCCCc2ccccc21`, the “activity, negative = inhibition” value is inactive: 2.86%. Same read-out and setting: next, `O=C1CC[C@@H](C(=O)N[C@@H](Cc2cnc[nH]2)C(=O)N[C@@H](Cc2c[nH]c3ccccc23)C(=O)N[C@@H](CO)C(=O)N[C@@H](Cc2ccc(O)cc2)C(=O)O)N1` ([pGlu]HWSY-OH): inactive: 18.1% [at 60.1 µM]; `Cc1nc2c(OCc3ccccc3)cccn2c1CC#N`: inactive: -7.9% [at 19.4 µM]. In the case of `O=C1NN(c2cccc(Br)c2)C(=O)/C1=C/c1ccc(-c2cc([N+](=O)[O-])ccc2O)o1`, the Potency was active: 79.4 µM.

As for `NC(=O)CSc1ncc2c(n1)-c1ccccc1N(Cc1cccc(F)c1)S2(=O)=O`, the “activity, negative = inhibition” value is inactive: 25.6%. As to `C[C@@H]1C(c2ccccc2)=NN(c2ccc(Br)cc2)[C@H]1C(=O)N1CCOC1=O`, the “activity, negative = inhibition” value was inactive: -0.702%. Same read-out and setting: the same measure for `COc1ccc(NC(=O)/C(C#N)=C/C=C/c2ccco2)cc1`: inactive: -12.5%. As to `O=C1/C(=C\c2ccco2)CCC/C1=C\c1ccco1`, the Potency is active: 8.91 µM. Take `Cc1c(Cl)cccc1NS(=O)(=O)c1ccc2c(c1)C1C=CCC1C(c1ccc(C(=O)O)cc1)N2` (stereo not given): the Potency was active: 2.82 µM. For the compound `NS(=O)(=O)c1cc2c(cc1C(F)(F)F)NC(Cc1ccccc1)NS2(=O)=O` (stereo not given), the “activity, negative = inhibition” value was inactive: 13.8%. In the case of `CSCC[C@H](NC(=O)[C@H](CCCNC(=N)N)NC(=O)[C@H](Cc1ccc(O)cc1)NC(=O)[C@@H]1CCCN1C(=O)CNC(=O)[C@H](CCC(=O)O)NC(=O)[C@H](CC(=O)O)NC(=O)[C@H](CCCCN)NC(=O)[C@H](CCCCN)NC(=O)[C@H](CCC(=O)O)NC(=O)[C@H](C)N)C(=O)N[C@@H](CCC(=O)O)C(=O)N[C@@H](Cc1cnc[nH]1)C(=O)N[C@@H](Cc1ccccc1)C(=O)N[C@@H](CCCNC(=N)N)C(=O)N[C@@H](Cc1c[nH]c2ccccc12)C(=O)NCC(=O)N[C@@H](CO)C(=O)N1CCC[C@H]1C(=O)N1CCC[C@H]1C(=O)N[C@@H](CCCCN)C(=O)N[C@@H](CC(=O)O)C(=O)O`, the “activity, negative = inhibition” value is inactive: 15.6% [at 60.1 µM]. Same read-out and setting: the same measure for `COc1cccc(NC(=O)CCNS(=O)(=O)c2ccc(Br)s2)c1`: inactive: -16%.

For the compound `NS(=O)(=O)c1cc2c(cc1Cl)N[C@@H]([C@@H]1C[C@@H]3C=C[C@H]1C3)NS2(=O)=O`, the activity, negative = inhibition is inactive: -9.54% [at 19.4 µM]. As to `O=C(/C=C/c1ccc(/C=C/C(=O)Nc2ccc(C3=NCCN3)cc2)cc1)Nc1ccc(C2=NCCN2)cc1`, the Potency was active: 18.9 µM.

As for `Cc1c(C(=O)O)cccc1-c1ccc(/C=N/n2cnnc2)o1`, the Potency is active: 89.1 µM. Still for that read-out and setting: next, `O=C(O)CCCNC(=O)/C=C/c1ccco1`: active: 50.1 µM.

Take `CC(C)C[C@H](NC(=O)[C@@H]1O[C@H]1C(=O)O)C(=O)NCCCCN=C(N)N`: the “activity, negative = inhibition” value was inactive: 13%.

For `Cc1ccc(S(=O)(=O)N2CCC(=O)N(CCOC(=O)Nc3cc(C)cc(C)c3)CC2)cc1`, the “activity, negative = inhibition” value was inactive: -3.13%. Still for that read-out and setting: the same measure for `CC(C)(C)NC[C@H](O)COc1cccc2c1CCC(=O)N2`: inactive: -3.86% [at 12 µM].

Take `CCCCCCCCCCCCN1[C@@H](CC(=O)O)c2cc(C(F)(F)F)ccc2S1(=O)=O`: the “activity, negative = inhibition” value was inactive: -16.2%. Regarding `CCn1c(SCC(=O)N/N=C/C=C/c2ccco2)nnc1-c1ccccc1`, the Potency was active: 79.4 µM. In the case of `COC(=O)c1scc(-c2ccc(C)cc2)c1S(=O)(=O)N1CCN(c2ccc(OC)cc2)CC1`, the “activity, negative = inhibition” value is inactive: 24.9%. Still for that read-out and setting: the same measure for `C[C@@H](O)CC(=O)O`: inactive: -6.98%; for `O=C(NCc1ccc(Cl)cc1)c1ccc(Br)o1`: inactive: -19.7%; for `CC(=O)N(O)C/C=C/c1cccc(Oc2ccccc2)c1`: inactive: 12.4% [at 60.1 µM]. Same read-out and setting: next, `COc1cc(/C=C(/C#N)C(=O)Nc2cc(C(F)(F)F)ccc2Cl)ccc1OCC(=O)Nc1cccc(C(F)(F)F)c1`: inactive: -4.96%. For `O=C(NCc1ccccc1)C1(C(F)(F)F)C/C(=C/CCO)CCCO1` (stereo not given), the Potency result is “inactive”.
